{
  "source": "the supplement of paper PMC10126150",
  "note": "Sequences with one replicate were seen in a single cluster, so their values are uncertain.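 Further: ATP exposure 15 min at 22 °C before imaging.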",
  "data": [
    {"test_system": "ATP", "assay": "switch fluorescence ratio, 500 uM ATP over buffer (Cy3 cluster intensity, sum of 5 cycles each) (fold (ratio)); higher = stronger signal-on switching upon ATP binding; sequences stand for … in TCGTCGGCAGCGTCAGATGTGTATAAGAGACAGTTTTTTTTTTTTTTTTTTTTTTTTT…TC", "conditions": "aptamer strand: ATP DNA aptamer (quencher-CACCTGGGGGAGTATTGCGGAGGAAGG + anchor), 100 nM annealed; ATP concentration: 500 uM; one replicate", "summary_of_the_method": "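Clusters carrying Cy3-labelled switching strands on a modified Illumina MiSeq flow-cell were annealed to 100 nM quencher-labelled ATP aptamer and imaged in selection buffer. They were imaged again after 15 min with 500 uM ATP at 22 °C, over five buffer/ATP cycles with NaOH stripping and re-annealing in between. For each cluster, the fluorescence ratio is the summed Cy3 intensity of the target cycles divided by that of the buffer cycles, averaged per switch-domain sequence. Clusters outside 100-1000 RFU were left out.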", "values": [
      {"sequence": "TGTTCGTTGG", "switch fluorescence ratio": 0.977},
      {"sequence": "TGTTCTCCCC", "switch fluorescence ratio": 1.13},
      {"sequence": "TGTTCTGAAG", "switch fluorescence ratio": 0.981},
      {"sequence": "TGTTGATTCA", "switch fluorescence ratio": 1.02},
      {"sequence": "TGTTGCATCA", "switch fluorescence ratio": 1.01},
      {"sequence": "TGTTGTACGA", "switch fluorescence ratio": 1.04},
      {"sequence": "TGTTTACCAC", "switch fluorescence ratio": 0.985},
      {"sequence": "TGTTTCAGTG", "switch fluorescence ratio": 1.02},
      {"sequence": "TGTTTCCAAT", "switch fluorescence ratio": 1.02},
      {"sequence": "TGTTTCGTCC", "switch fluorescence ratio": 1.03},
      {"sequence": "TGTTTCTTAG", "switch fluorescence ratio": 1.02},
      {"sequence": "TGTTTGCTCA", "switch fluorescence ratio": 1.04},
      {"sequence": "TGTTTTAGTC", "switch fluorescence ratio": 0.987},
      {"sequence": "TGTTTTGTAA", "switch fluorescence ratio": 0.946},
      {"sequence": "TTAAAAACCG", "switch fluorescence ratio": 1.02},
      {"sequence": "TTAAAACTGC", "switch fluorescence ratio": 1.15},
      {"sequence": "TTAAAATACG", "switch fluorescence ratio": 0.975},
      {"sequence": "TTAAACACGC", "switch fluorescence ratio": 1.07},
      {"sequence": "TTAAACGCTC", "switch fluorescence ratio": 1.11},
      {"sequence": "TTAAAGAGTG", "switch fluorescence ratio": 1.04},
      {"sequence": "TTAAAGATCT", "switch fluorescence ratio": 1.01},
      {"sequence": "TTAAAGTGGA", "switch fluorescence ratio": 0.94},
      {"sequence": "TTAAATGC", "switch fluorescence ratio": 1.04},
      {"sequence": "TTAAATTTC", "switch fluorescence ratio": 0.936},
      {"sequence": "TTAACACTAT", "switch fluorescence ratio": 1.02},
      {"sequence": "TTAACATAT", "switch fluorescence ratio": 1.04},
      {"sequence": "TTAACGATGG", "switch fluorescence ratio": 0.957},
      {"sequence": "TTAACGTCTG", "switch fluorescence ratio": 0.975},
      {"sequence": "TTAACTGG", "switch fluorescence ratio": 0.941},
      {"sequence": "TTAACTGGAG", "switch fluorescence ratio": 0.99},
      {"sequence": "TTAACTTTGG", "switch fluorescence ratio": 1.03},
      {"sequence": "TTAAGAAGGA", "switch fluorescence ratio": 1},
      {"sequence": "TTAAGAAGTA", "switch fluorescence ratio": 0.968},
      {"sequence": "TTAAGACGG", "switch fluorescence ratio": 0.979},
      {"sequence": "TTAAGAGTGT", "switch fluorescence ratio": 0.963},
      {"sequence": "TTAAGCAAA", "switch fluorescence ratio": 0.993},
      {"sequence": "TTAAGCATTA", "switch fluorescence ratio": 1.07},
      {"sequence": "TTAAGCCTGC", "switch fluorescence ratio": 0.959},
      {"sequence": "TTAAGCTATT", "switch fluorescence ratio": 1.01},
      {"sequence": "TTAAGGCTTC", "switch fluorescence ratio": 1.01},
      {"sequence": "TTAAGGTAGA", "switch fluorescence ratio": 1.14},
      {"sequence": "TTAAGGTAT", "switch fluorescence ratio": 0.996},
      {"sequence": "TTAAGTCGGT", "switch fluorescence ratio": 0.996},
      {"sequence": "TTAAGTGATA", "switch fluorescence ratio": 1.03},
      {"sequence": "TTAAGTGCGA", "switch fluorescence ratio": 1},
      {"sequence": "TTAAGTTAAC", "switch fluorescence ratio": 1.13},
      {"sequence": "TTAAGTTGGA", "switch fluorescence ratio": 0.971},
      {"sequence": "TTAATAATGT", "switch fluorescence ratio": 1.02},
      {"sequence": "TTAATACGCC", "switch fluorescence ratio": 1.76},
      {"sequence": "TTAATCAGAC", "switch fluorescence ratio": 1.05},
      {"sequence": "TTAATCCAG", "switch fluorescence ratio": 1.05},
      {"sequence": "TTAATGAAGC", "switch fluorescence ratio": 0.993},
      {"sequence": "TTAATGAGCA", "switch fluorescence ratio": 1.02},
      {"sequence": "TTAATGATGA", "switch fluorescence ratio": 1.04},
      {"sequence": "TTAATGTATA", "switch fluorescence ratio": 1.01},
      {"sequence": "TTAATGTCCA", "switch fluorescence ratio": 0.967},
      {"sequence": "TTAATGTTAG", "switch fluorescence ratio": 1.02},
      {"sequence": "TTAATTCAA", "switch fluorescence ratio": 0.961},
      {"sequence": "TTAATTCCAA", "switch fluorescence ratio": 1.04},
      {"sequence": "TTAATTGCCC", "switch fluorescence ratio": 1.04},
      {"sequence": "TTACAAATCG", "switch fluorescence ratio": 0.998},
      {"sequence": "TTACAAGGGG", "switch fluorescence ratio": 1.04},
      {"sequence": "TTACAATAAT", "switch fluorescence ratio": 1},
      {"sequence": "TTACACGTCA", "switch fluorescence ratio": 1.19},
      {"sequence": "TTACACGTTT", "switch fluorescence ratio": 1.34},
      {"sequence": "TTACAGAGT", "switch fluorescence ratio": 0.955},
      {"sequence": "TTACAGGCGT", "switch fluorescence ratio": 0.99},
      {"sequence": "TTACAGGCTT", "switch fluorescence ratio": 1.01},
      {"sequence": "TTACAGGGA", "switch fluorescence ratio": 0.962},
      {"sequence": "TTACAGTATG", "switch fluorescence ratio": 1.1},
      {"sequence": "TTACATCCTT", "switch fluorescence ratio": 1.02},
      {"sequence": "TTACATGTG", "switch fluorescence ratio": 0.984},
      {"sequence": "TTACCAAGAG", "switch fluorescence ratio": 1.02},
      {"sequence": "TTACCGCCGT", "switch fluorescence ratio": 0.967},
      {"sequence": "TTACCGCGTA", "switch fluorescence ratio": 1.06},
      {"sequence": "TTACCGGTTT", "switch fluorescence ratio": 1.03},
      {"sequence": "TTACCGTAAT", "switch fluorescence ratio": 1.22},
      {"sequence": "TTACCTCTTC", "switch fluorescence ratio": 1.09},
      {"sequence": "TTACCTTACG", "switch fluorescence ratio": 1.58},
      {"sequence": "TTACCTTTAA", "switch fluorescence ratio": 0.999},
      {"sequence": "TTACGACACG", "switch fluorescence ratio": 1.34},
      {"sequence": "TTACGAGACG", "switch fluorescence ratio": 0.995},
      {"sequence": "TTACGAGTGA", "switch fluorescence ratio": 1.04},
      {"sequence": "TTACGATTAA", "switch fluorescence ratio": 1.02},
      {"sequence": "TTACGATTCG", "switch fluorescence ratio": 0.975},
      {"sequence": "TTACGATTTA", "switch fluorescence ratio": 1.01},
      {"sequence": "TTACGGCTCC", "switch fluorescence ratio": 1.03},
      {"sequence": "TTACGGGTAC", "switch fluorescence ratio": 1.07},
      {"sequence": "TTACGGTATT", "switch fluorescence ratio": 1.19},
      {"sequence": "TTACGGTCGC", "switch fluorescence ratio": 0.992},
      {"sequence": "TTACGGTGCT", "switch fluorescence ratio": 0.969},
      {"sequence": "TTACGTGACG", "switch fluorescence ratio": 0.995},
      {"sequence": "TTACTCAGGC", "switch fluorescence ratio": 0.998},
      {"sequence": "TTACTCGATT", "switch fluorescence ratio": 1.15},
      {"sequence": "TTACTCTATG", "switch fluorescence ratio": 1.06},
      {"sequence": "TTACTCTATT", "switch fluorescence ratio": 1.02},
      {"sequence": "TTACTCTGGA", "switch fluorescence ratio": 0.998},
      {"sequence": "TTACTCTTAT", "switch fluorescence ratio": 1.11},
      {"sequence": "TTACTGAT", "switch fluorescence ratio": 1.02},
      {"sequence": "TTACTGATAA", "switch fluorescence ratio": 1.04},
      {"sequence": "TTACTTATGC", "switch fluorescence ratio": 1.02},
      {"sequence": "TTACTTCAAG", "switch fluorescence ratio": 1.07},
      {"sequence": "TTACTTTGCC", "switch fluorescence ratio": 1.04},
      {"sequence": "TTAGAAAACC", "switch fluorescence ratio": 1.02},
      {"sequence": "TTAGAAGAAT", "switch fluorescence ratio": 0.972},
      {"sequence": "TTAGAAGCTG", "switch fluorescence ratio": 1.06},
      {"sequence": "TTAGAAGGGT", "switch fluorescence ratio": 0.985},
      {"sequence": "TTAGAAGTAC", "switch fluorescence ratio": 1.31},
      {"sequence": "TTAGAAGTTG", "switch fluorescence ratio": 1.04},
      {"sequence": "TTAGAATATA", "switch fluorescence ratio": 0.996},
      {"sequence": "TTAGACGTGG", "switch fluorescence ratio": 1.04},
      {"sequence": "TTAGACTCCC", "switch fluorescence ratio": 1.32},
      {"sequence": "TTAGAGCCAA", "switch fluorescence ratio": 1.03},
      {"sequence": "TTAGAGCGCT", "switch fluorescence ratio": 1.12},
      {"sequence": "TTAGAGGGAA", "switch fluorescence ratio": 0.983},
      {"sequence": "TTAGAGTGGC", "switch fluorescence ratio": 0.977},
      {"sequence": "TTAGATACGT", "switch fluorescence ratio": 0.979},
      {"sequence": "TTAGATCCTG", "switch fluorescence ratio": 1.03},
      {"sequence": "TTAGATCGTG", "switch fluorescence ratio": 1.04},
      {"sequence": "TTAGATGTTT", "switch fluorescence ratio": 0.971},
      {"sequence": "TTAGATTGGC", "switch fluorescence ratio": 0.997},
      {"sequence": "TTAGCATCCA", "switch fluorescence ratio": 1.03},
      {"sequence": "TTAGCGTAA", "switch fluorescence ratio": 1.03},
      {"sequence": "TTAGCTAACC", "switch fluorescence ratio": 1.01},
      {"sequence": "TTAGCTCAGA", "switch fluorescence ratio": 0.975},
      {"sequence": "TTAGCTTTC", "switch fluorescence ratio": 1.12},
      {"sequence": "TTAGGACCAT", "switch fluorescence ratio": 1},
      {"sequence": "TTAGGATGGA", "switch fluorescence ratio": 0.972},
      {"sequence": "TTAGGCAGA", "switch fluorescence ratio": 1.02},
      {"sequence": "TTAGGCGCAA", "switch fluorescence ratio": 3.63},
      {"sequence": "TTAGGCTC", "switch fluorescence ratio": 0.967},
      {"sequence": "TTAGGGCCAT", "switch fluorescence ratio": 0.992},
      {"sequence": "TTAGGGTACT", "switch fluorescence ratio": 1.02},
      {"sequence": "TTAGGGTTAC", "switch fluorescence ratio": 1},
      {"sequence": "TTAGGGTTGA", "switch fluorescence ratio": 1.01},
      {"sequence": "TTAGGTTGGA", "switch fluorescence ratio": 0.984},
      {"sequence": "TTAGTAATA", "switch fluorescence ratio": 1.01},
      {"sequence": "TTAGTAATGG", "switch fluorescence ratio": 0.925},
      {"sequence": "TTAGTAGCAC", "switch fluorescence ratio": 1.13},
      {"sequence": "TTAGTAGCTT", "switch fluorescence ratio": 1.01},
      {"sequence": "TTAGTCTACT", "switch fluorescence ratio": 1.03},
      {"sequence": "TTAGTGAACT", "switch fluorescence ratio": 1.03},
      {"sequence": "TTAGTGACTT", "switch fluorescence ratio": 0.993},
      {"sequence": "TTAGTGCCCG", "switch fluorescence ratio": 1.04},
      {"sequence": "TTAGTGTTAA", "switch fluorescence ratio": 0.99},
      {"sequence": "TTAGTTCACG", "switch fluorescence ratio": 0.931},
      {"sequence": "TTAGTTGCGT", "switch fluorescence ratio": 0.991},
      {"sequence": "TTATACCGCC", "switch fluorescence ratio": 1.01},
      {"sequence": "TTATACCTAC", "switch fluorescence ratio": 1.31},
      {"sequence": "TTATACTAGG", "switch fluorescence ratio": 1.01},
      {"sequence": "TTATACTGTA", "switch fluorescence ratio": 1.41},
      {"sequence": "TTATAGACAT", "switch fluorescence ratio": 1.04},
      {"sequence": "TTATAGACTC", "switch fluorescence ratio": 1.06},
      {"sequence": "TTATAGTA", "switch fluorescence ratio": 1.01}
    ]}
  ]
}
